± gives the standard deviation of the averaged measurements. This is one part of the list.
The sequences below were run on PfAP2-I AP2 domain 3 (GST-tagged) (assay: gcPBM binding intensity (ln(normalized median fluorescence intensity)); higher = stronger DNA binding).
Summary of the method: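 GST-tagged P. falciparum DNA-binding domains produced in E. coli were incubated for 1 h on an Agilent 4 × 180k array of primer-extended double-stranded 36-bp intergenic genomic probes with negative controls. Binding intensity is the highest Masliner-normalised natural-log median intensity across replicate spots of either probe orientation, with bound protein detected by Alexa488 anti-GST antibody at 488 nm.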

| Sequence | gcPBM binding intensity (ln) |
| --- | --- |
| GTTACAGAGAATGTTGTGCACATATCAATAATATAT [GTGCAC_site9671] | 10.44 ± 0.064 |
| AATACATGAATATGTAGTACAGAAAAAAAAAATATA [XGTACX_site1945] | 7.89 ± 0.6 |
| TATATATATATATATATTTTAAATGATATAAATGGT [TGCATGCA_negctrl_site152] | 9.26 ± 0.63 |
| AATTAATTAAATTAATGTACACATATATTTGTATTC [XGTACX_site2341] | 7.96 ± 0.19 |
| TCCCTTCATCTTTTATGTACTAAAAAATTGAATAAT [XGTACX_site2172] | 8.04 ± 0.26 |
| TAATACGAATGAGGCACACACCTAGTATACATGCTT [CACACA_site6438] | 7.79 ± 0.7 |
| AATTAAAATTTTTGAAGTACACTCAAAATAAGTTAT [XGTACX_site4490] | 7.95 ± 0.092 |
| AATTAATGGCTAAAGGTGCACAATATATATATTACA | 11.3 ± 0.19 |
| AAAATAAAAAAAAACACACACATACAAGCATATATA [CACACA_site1585] | 7.52 ± 0.55 |
| AAAAAAAAATTTAAGGGTACATACAAATATATATAT [XGTACX_site5078] | 8.81 ± 0.085 |
| TGGAATAATCCGCGTACACACATATATATATTAAGA [CACACA_site4253] | 8.31 ± 0.042 |
| TTATATTCTAGAGACACATGCGATTTTTTATTTTAT [TGCATGCA_site649] | 7.61 ± 0.69 |
| AATTAACCCTAATTTTGTACATATTCCTTTTCTCAT [XGTACX_site46] | 7.92 ± 1 |
| AATAAAAATAGGAATACGCACACGATGATTAATTTA [CACACA_site1836] | 7.88 ± 0.52 |
| TATACCACACGATATACACACTTGTAGACATCTTTT [CACACA_site6232] | 7.76 ± 0.64 |
| GTTACTATGATTAATGCATGCAAATACCAAAAAAAA [TGCATGCA_site590] | 8.54 ± 0.71 |
| TATTTTTATTGGTACTGTACCTATTTAGAAATACAT [XGTACX_site6663] | 7.99 ± 0.19 |
| ATGATTTCATTTGAGAGTACGTAAAAATAATACGTA [XGTACX_site4958] | 7.54 ± 0.38 |
| TTTGCCATATGACACACACACATGTAAACCCCCTTT [CACACA_site6873] | 8.84 ± 0.042 |
| TAATACAAAAACAATGTTCTTTCAAACATAAACATA [CACACA_negctrl_site1628] | 7.28 ± 0.41 |
| TATTTATAAAAAAATACATGCATTTTTTTTTTTTTT [TGCATGCA_site65] | 8.26 ± 0.54 |
| TGTTAATTCTTAAGAATTTCCATAATTTCTTCTTTT [CACACA_negctrl_site1065] | 7.35 ± 0.57 |
| TATATATATATATATTTTTTTTTTTTATGCACATGG [CACACA_negctrl_site1573] | 10.3 ± 0.53 |

| Sequence | gcPBM binding intensity (ln) |
| --- | --- |
| TTTTTTTTTTTGAAATGTACATTCCAAAAACTGATA [XGTACX_site1495] | 8.04 ± 0.84 |
| CTTTTGAACAGTTCATGTACTCAATTTTTTAATAGT [XGTACX_site6498] | 7.73 ± 0.31 |
| TAATACCTATGGTATAGTACGTATTATTTTATAGAG [XGTACX_site2078] | 7.5 ± 0.39 |
| TATTAGAACATATATGCATGCAATAGATATTCCAAT [TGCATGCA_site297] | 8.02 ± 0.99 |
| TATGTATAATTTCATTGTACTTTTGATATTATCATA [XGTACX_site280] | 7.43 ± 0.31 |
| ATATCATTTTCTAGCACACACATTGTTATTACCTTG [CACACA_site902] | 8.38 ± 0.68 |
| AGTCTGAATAAAATTACACACATATACAGATATATA [CACACA_site5054] | 7.73 ± 0.44 |
| TTTTTTTAAATATACACACACATTTATACAGATATA [CACACA_site5811] | 7.96 ± 0.49 |
| TTTCTAAAAATAAGAACACACACATATAAGCATATA [CACACA_site8714] | 7.93 ± 0.33 |
| ACTGCGTTTTTACACGCGCACTGCAATGAACAATAT | 8.47 ± 0.48 |
| TATGTAACAAAAAAAAGTACACATATATATAGTGTA [XGTACX_site7772] | 7.985 ± 0.007 |
| AAGATAATCACAAAATGTACAGGAAATATGACAACC [XGTACX_site3607] | 8.26 ± 0.73 |
| TTTTCTAAATTAATAATACACACTTGCTAAAATCAT [CACACA_site3207] | 7.78 ± 0.56 |
| AAGAAAAAGGAACGGAAAAACAAACAAGGGGCCCAA [TGCATGCA_negctrl_site4] | 7.69 ± 0.91 |
| AATGGTATAAACAATACACACATAATATATATATTG [CACACA_site4997] | 7.61 ± 0.63 |
| AGTGGTGTTAAATGTTGTACGATTTTGTGTTATTCG [XGTACX_site178] | 8.36 ± 0.41 |
| ATTTAAGCATTATTTTGTACGAAAATAAAAAAATGA [XGTACX_site6958] | 7.91 ± 0.5 |
| ATATAAAAAAATAAAACACACACATATATATTATAT [CACACA_site8909] | 7.8 ± 0.5 |
| AAAGGAAAATGTGTAAAAAGAAATGCTAGGTATATA [GTGCAC_negctrl_site699] | 7.77 ± 0.83 |
| ATATATATATAATATAGTACGTATAATATATGAATC [XGTACX_site4385] | 8.78 ± 0.071 |
| TATAATGCTCTTCTTTGTACATATTATGATTATATT [XGTACX_site2332] | 8.53 ± 0.26 |
| AAAAAAAAAAAAAACACACAAATCATAAATAAATAT [CACACA_site6362] | 8.02 ± 0.4 |
| TAATAGTATATAAAAAGTACATAATAAGATATGAAA [XGTACX_site1000] | 7.76 ± 0.63 |

| Sequence | gcPBM binding intensity (ln) |
| --- | --- |
| AAAAAAAAAATTGAAAGTACAAATATGTATTATATA [XGTACX_site2455] | 7.47 ± 0.53 |
| TAAAATATGTCATGTGGTACATGAATAGCTTTTATT [XGTACX_site3809] | 7.58 ± 0.47 |
| ATTATGTGCCAATACACACACACATATATATATATA [CACACA_site468] | 9.265 ± 0.049 |
| TTTAAATATTACATATGTACTTATAAATATATATAT [XGTACX_site1284] | 8.71 ± 0.11 |
| AAGGAATAGGCATATACACACAGGTACAGATATATA [CACACA_site4402] | 7.86 ± 0.57 |
| ACTACGTGGATTAGTTCAAGGGAACACGTCCTATAC [CACACA_negctrl_site1427] | 7.85 ± 0.65 |
| CAACAAAAGTTATTTACACACAAAAGGCAAGGAAAT [CACACA_site7013] | 8.2 ± 0.81 |
| ACTAAACGAATAAATTGTACAAAGAAATATATTCAT [XGTACX_site6766] | 7.83 ± 0.54 |
| ATATTTCATTTTTGTACACACAACGTTGGAGGGTTT [CACACA_site3043] | 8.09 ± 0.63 |
| TAAAAAATTACATATTGTACAGGCAAAATTACACAT [XGTACX_site1152] | 7.81 ± 0.64 |
| AAAGGAAATAAAAACGCACACAGAAATAATATCTAT [CACACA_site457] | 7.99 ± 0.64 |
| TCATATAAATACACGTGTACATATATATATTACAGT [XGTACX_site1954] | 7.96 ± 0.49 |
| AATATAAAAAATAGTTGTACTATATTTAAATATGAC [XGTACX_site2937] | 7.88 ± 0.22 |
| AGTTTGCATATGGAAGTGCATTACCTTGAACATCAT | 11.2 ± 0.38 |
| AAAAAATATATATGCACACACAAAAAAACAAATTAA [CACACA_site1278] | 9.27 ± 0.3 |
| AACTCATAAAATAATGGTACACAAAAAAAATAAATA [XGTACX_site7648] | 7.91 ± 0.5 |
| TTAGGCAAGGCGGGGGGTACGTTTTTATATAATTAT [XGTACX_site8029] | 10.7 ± 0.3 |
| TTAGATTTATAAGTGTGTACGTAAAATACTTAATAA [XGTACX_site8246] | 7.98 ± 0.31 |
| CAAGGAACCAGACACACACACATAAATGTATTTATA [CACACA_site6491] | 7.68 ± 0.61 |
| TTTTTTTTTTTCTTTTGTACGTATAAAATTATATAA [XGTACX_site2453] | 8.15 ± 0.67 |
| TTTTTATCTAATCTAATATTATATTATACATATAAT [XGTACX_negctrl_site275] | 7.54 ± 0.73 |
| TGTGTGTGCTTATTTTGTACATATTAGGTAAATATT [XGTACX_site6329] | 8.38 ± 0.18 |
| TTTATGGAATAATCACGTACACACAAGAAAAAAAAA [XGTACX_site985] | 8.29 ± 0.61 |

| Sequence | gcPBM binding intensity (ln) |
| --- | --- |
| TACATACATACATACACACATACATATGTATATATA [CACACA_site2480] | 8.89 ± 0.94 |
| TAATGCCATAATACGTGTACTTAATATATTAGAACA [XGTACX_site5809] | 8.06 ± 0.57 |
| CTCAAATGTTATTGTAGTACCTAAAAAATATATTCT [XGTACX_site1970] | 7.59 ± 0.49 |
| GTTGGTAGGCGGTACGGTACACGTAAAGTTTTTCTT [XGTACX_site7706] | 7.79 ± 0.47 |
| ATAAATGACAAATTAACACACATATATTATATATAT [CACACA_site3899] | 8.16 ± 0.47 |
| ACCATATAAATAAACACACACACACGGATATAAATA [CACACA_site7157] | 8.05 ± 0.44 |
| TATATGTTTTATAGTACACACATAAATGGACATACT [CACACA_site2191] | 7.83 ± 0.33 |
| TGAATTTAGATATATACACACAAAAGTATATACAAT [CACACA_site2804] | 7.53 ± 0.54 |
| ATATGTATTAAGTGTACACATATAATCTATCTTGTT [CACACA_site5329] | 8.21 ± 0.2 |
| CCCACTAAAAAACACACACACACACCCATATATATA [CACACA_site6140] | 8.43 ± 0.65 |
| TTTTTTTTATATAGTAGTACTAATTAGAATTTTTAT [XGTACX_site7476] | 7.82 ± 0.32 |
| ATATATTTTAAATATATTATTATTGCATTGTGAAAA [TGCATGCA_negctrl_site106] | 8.04 ± 0.12 |
| CACAGACACGGACACACACACACACCCACATATATA [CACACA_site4355] | 8.3 ± 0.28 |
| AAAAAAAAAAAAAAAACACACATATATATATATATA [CACACA_site2436] | 10 ± 0.13 |
| TCTTAAAAAATAGGGACACGTAAATATAATATATAA [CACACA_negctrl_site554] | 7.83 ± 0.57 |
| TATATATATATATATAGTACATATTAATTAATTTAT [XGTACX_site8198] | 9.31 ± 0.3 |
| ACACATACTAAAATGTTGTGAAATATGATAATGTGA [CACACA_negctrl_site851] | 7.61 ± 0.58 |
| TTATAATAATAGAACTTTATGTAGAAAAAAGGAAAA [XGTACX_negctrl_site116] | 7.54 ± 0.56 |
| AACAGCATTATTTCTTATTTTTTTTTTGATATATTT [GTGCAC_negctrl_site114] | 7.58 ± 0.73 |
| ATATCTATAATAAATACACACATTTATATAGATAAA [CACACA_site7518] | 7.54 ± 0.52 |
